Reference: PubChem BioAssay AID1956 (SRMLSC, 2009)
The list shows a part of the results. The main result of the screen is listed elsewhere. These columns were measured beside it and carry no call.

Assay: compounds boosting herpes simplex virus growth – fold increase, host cell viability (AID 1956); also: tested in PC3 cells
Settings: HSV replication augmentation in cells; fold increase: measured here: primary screen fold increase 10 uM, at 10 µM, stronger effect = higher value; viability: measured here: host cell viability series, at 25 µM, stronger effect = lower value

| Structure (SMILES) | fold increase | viability [%] |
| --- | --- | --- |
| COC(=O)c1c(C)[nH]c(O)c1C=Nc1ccc(C#N)cc1 | 2 | 100 |
| CCCCN1C(=O)/C(=C/C=C2\N(C)c3ccccc3C2(C)C)SC1=S | 3.68 | 55.9 |
| CSC1=NSC2=NC(=O)/C(=C/c3coc4ccccc4c3=O)C(=N)N12 | 2.67 | 92.5 |
| COc1ccc(C(=O)/C=C/c2cc(OC)c(O)c(OC)c2)c(F)c1 | 4.94 |  |
| O=S(=O)(NCc1cccs1)c1cccc2cccnc12 | 1.33 | 97.3 |
| O=C(O)CCN1C(=O)/C(=C\c2ccc(-c3nc4ccccc4s3)o2)SC1=S | 1.53 | 95 |
| CCOc1ccc(-c2ccc(/C=C3/C(=N)N4C=CSC4=NC3=O)o2)c([N+](=O)[O-])c1 | 1.52 | 39 |
| Cc1cc(Nc2ccc(F)cc2C)n2ncnc2n1 | 1.45 | 95.5 |
| COc1ccc(S(=O)(=O)N2CCOCC2)cc1C(C)C | 1.52 | 87.2 |
| CCOC(=O)NC(=O)/C(C#N)=C\Nc1sccc1C(=O)OC | 2.09 | 97.8 |
| Cc1cccc(COc2ccccc2/C=N/Nc2ccc([N+](=O)[O-])cc2)c1 | 1.55 | 60.6 |
| CC(C)CC(N=C1NC(C)(C)Cc2ccccc21)C(=O)O (configuration not stated) | 1.34 | 91.2 |
| O=S(=O)(Nc1cccc(CCc2ccccn2)c1)c1cc(Cl)ccc1Cl | 1.5 | 96.5 |
| COc1cc(C2C(C(=O)c3ccc(C)o3)=C(O)C(=O)N2c2cc(C)on2)cc(Br)c1O (configuration not stated) | 1.33 | 101 |
| O=C1C(=C(O)c2ccccc2)C(=O)c2ccccc21 | 3.32 | 97.9 |
| COc1ccc(N2CCN(C(=O)/C(C#N)=C/c3ccccc3)CC2)cc1 | 1.5 | 88.8 |
| N=C1c2c(cc(=O)n3c2[nH]c2ccccc23)CN1CCN1CCOCC1 | 1.33 |  |
| O=C1/C(=C/c2ccc(N3CCOCC3)o2)SC(=Nc2ccccc2)N1CCc1c[nH]c2ccccc12 | 1.84 | 54.5 |
| Brc1cc(Br)cc(CN2CCSCC2)c1 | 1.33 | 96.5 |
| CCN(CC)C(=O)CSc1nnc(-c2ccccc2)n1N | 1.58 | 88.7 |
| CCOc1ccc(C2C=C(c3ccc(C)cc3)Nc3nnnn32)cc1 (configuration not stated) | 1.47 | 101 |
| Cn1c2ccccc2c2cc(/C=C(\NC(=O)c3ccccc3)C(=O)NCC(=O)O)ccc21 | 3.2 | 92.2 |
| COC(=O)c1cc(OC)nc2c1c(=O)n(C)c(=O)n2C | 1.44 | 100 |
| O=C(Nc1ccc2nc3ccccc3nc2c1)c1ccccc1 | 1.36 | 93.8 |

| Structure (SMILES) | fold increase | viability [%] |
| --- | --- | --- |
| COc1cc(/C=C2\SC(=S)N(C(C(=O)O)c3ccccc3)C2=O)ccc1O (configuration not stated) | 6.42 | 92.7 |
| Cc1ccn2c(NC3CCCC3)c(-c3ccsc3)nc2c1 | 2.16 | 99.4 |
| CC1=CC(=O)c2ccccc2C1=O | 1.52 | 81.2 |
| CCN(CC)Cc1c(O)ccc2c1O/C(=C\C=C\c1ccccc1)C2=O | 2.33 | 28.8 |
| CCN(CC)c1ccc(/C=C(/C#N)c2nc3ccccc3[nH]2)c(OC(C)C)c1 | 5.76 | 42.4 |
| COC(=O)C1=C(C)N=C2SC(C#N)=C(N)N2C1c1ccc(OCc2ccccc2)cc1 (configuration not stated) | 1.34 |  |
| CC[n+]1c(/C=C/c2c[nH]c3ccccc23)ccc2cc(C)ccc21 | 7.76 | 4.08 |
| Cc1c(-n2cc(C(=O)c3cc(Br)ccc3O)cc(C#N)c2=O)c(=O)n(-c2ccccc2)n1C | 1.59 | 99.3 |
| CCOc1ccccc1NC(=O)c1cc(C(=O)c2cc(OC)ccc2O)coc1=N | 1.61 | 86.4 |
| CN1C(=O)/C(=C/c2ccc(-c3ccccc3[N+](=O)[O-])o2)SC1=Nc1ccc(Cl)c(C(=O)O)c1 | 1.65 | 103 |
| CCCNC(=O)COC(=O)c1ccc(S(=O)(=O)N2CCCCCC2)cc1 | 1.32 | 99 |
| Cc1cc(C(=O)NC(C)CCC(C)C)c2ccccc2n1 (configuration not stated) | 1.39 | 97.2 |
| COc1cc2nc(/C=C/c3ccc(N(C)C)cc3)sc2cc1SC | 5.55 | 98.8 |
| CCOC(=O)CN=C1CC(C)(C)CC2=C1Sc1ncnc(N(C)C)c1N2 | 1.33 | 93.7 |
| COc1cc(C(=O)Nc2nnc(-c3sccc3C)s2)cc(OC)c1OC | 1.14 |  |
| N#Cc1cc(S(=O)(=O)c2ccc(F)cc2)c(N)[nH]c1=O | 1.48 | 93.5 |
| CCOC(=O)C1CCN(C(=O)c2cn(CCOC)c(=O)c3c2c2ccccc2n3C)CC1 | 1.37 | 98 |
| O=C(NCc1ccco1)c1cc2cc3ccc(Cl)cc3nc2o1 | 1 |  |
| CCOc1ccc2noc3c2c1C(=O)c1ccccc1-3 | 4.32 | 96 |
| O=C(Nc1nc(-c2ccco2)c(-c2ccco2)s1)C1CCC1 | 1.39 | 82.2 |
| COc1ccc(NC(=S)NNC(=O)Cn2nc([N+](=O)[O-])cc2C)cc1 | 1.36 | 100 |
| CN(C)/C=C1\SC(=S)N(c2ccc(Br)cc2)C1=O | 1.84 | 96.2 |
| Cn1c(=O)c(NCCc2ccccc2)c2c3c(cccc31)C(=O)c1ccccc1-2 | 7.68 |  |
| COc1ccc(OC)c(-c2c3cc(O)c(=O)cc-3oc3cc(O)c(O)cc23)c1 | 7.19 | 89.1 |

| Structure (SMILES) | fold increase | viability [%] |
| --- | --- | --- |
| O=C1OC(c2ccco2)=N/C1=C\c1ccc(-c2cccc(C(F)(F)F)c2)o1 | 1.35 | 99.9 |
| CCN(CC)c1ccc(S(=O)(=O)N2CCOCC2)cc1NC(=O)CNCc1ccccc1 | 1.38 | 97.2 |
| COc1ccc(C2C=C(c3ccccc3)Nc3nnnn32)cc1 (configuration not stated) | 1.41 | 99.3 |
| CNC(=O)CN(c1ccc2c(c1)OCCO2)S(C)(=O)=O | 1.56 | 94.9 |
| CC1OC2(C)OC(=N)C1(C#N)C(C#N)(C#N)C2c1ccccc1 (configuration not stated) | 1.44 | 101 |
| CCNC(=S)N/N=C/c1cccs1 | 1.17 |  |
| CCOC(=O)c1ccc(NC(=O)Nc2ccc(F)cc2)cc1 | 1.01 |  |
| CCN1Cc2c(/C=C/c3ccccc3)nc3ccc(OC)cc3c2N(c2cccc(Cl)c2)C1 | 1.36 | 13 |
| O=C/C(=C\Nc1ccc(S(=O)(=O)CCO)cc1)c1nc2cc(Cl)ccc2o1 | 1.33 | 94.9 |
| CN(C)c1ccc(N=Cc2nc(-c3ccccc3)oc2OC(=O)c2cccc(Cl)c2)cc1 | 1.54 | 101 |
| N#C/C(=C\c1ccc(OC(=O)c2ccc(Cl)s2)cc1)c1nc2ccccc2[nH]1 | 1.83 | 85.5 |
| COC(=O)c1cc(NC(=O)c2ccccc2)c(=O)oc1C/C=N\OCc1ccc(Cl)cc1Cl | 1.52 | 96.3 |
| COc1ccc(S(=O)(=O)N2CCCCC2C(=O)O)cc1 (configuration not stated) | 1.33 | 96.7 |
| CC(C)OCCCn1c(=NC(=O)c2ccncc2)c(C#N)cc2c(=O)n3ccccc3nc21 | 1.32 | 97.6 |
| Cc1ccc(Oc2nnc(-c3ccccc3)c3ccccc23)cc1 | 1.47 | 78.5 |
| CCOC(=O)c1sc(NC(=O)CSc2nc3c(cc2C#N)CCCCCC3)c(C#N)c1C | 3.16 | 70.1 |
| COc1ccc(-[n+]2c(C)cc(/C=C3\Sc4ccccc4N3C)cc2C)cc1 | 6.75 | 33.1 |
| O=[N+]([O-])c1cccc(-c2cn3nc(-c4ccccc4)c(-c4ccccc4)nc3n2)c1 | 1.52 | 88.3 |
| CC[C@@]1(O)C(=O)OCc2c1cc1n(c2=O)Cc2cc3c(CN(C)C)c(O)ccc3nc2-1 | 2.56 | 28.8 |
| COc1cc(N2CCCC2)c(OC)cc1/C=C(/C#N)c1ccc(F)cc1 | 2.04 | 88.4 |
| O=C1NC(=S)/C(=C\c2ccc(-c3ccccc3Cl)o2)S1 | 1.37 | 64.3 |
| COc1ccc(/C=N/NC(=O)c2cc(-c3ccccc3OC)nc3ccccc23)cc1COC(C)=O | 1.09 |  |
| Cc1c(S(=O)(=O)c2ccccn2)c(N)n(Cc2ccccc2)c1C | 1.45 | 85.3 |
| O=C(Cn1nc2ccccc2n1)N/N=C/c1cc([N+](=O)[O-])ccc1O | 1.39 |  |

| Structure (SMILES) | fold increase | viability [%] |
| --- | --- | --- |
| O=[N+]([O-])c1ccc(N/N=C/c2ccccc2)c(F)c1 | 1.51 |  |
| COc1ccc(CCN2C(=O)C3C4C=CC(C4)C3C2=O)cc1OC (configuration not stated) | 1.39 | 93.3 |
| COc1ccc(O)c(C(=O)c2coc(=N)c(C(=O)Nc3ccc(SC(F)F)cc3)c2)c1 | 3.33 | 78.2 |
| CCn1cc([N+](=O)[O-])c(C(=O)N2N=C(c3ccc4ccccc4c3)CC2c2ccccc2O)n1 (configuration not stated) | 1.13 |  |
| COc1cc(/C=C2\SC(=Nc3cccnc3)NC2=O)cc(OC)c1OC | 1.61 | 91.7 |
| CCCSc1nc(=O)n2cc(C)ccc2n1 | 1.33 | 98.1 |
| NC(=S)N/N=C/c1cccc(O)c1O | 1.45 | 89.2 |
| O=C(CN(CC1CCCO1)S(=O)(=O)c1ccc(S(=O)(=O)NCC2CCCO2)cc1)Nc1ccccc1 (configuration not stated) | 1.56 | 100 |
| Cn1cc(/C=C2\SC(=S)N(NC(=O)c3ccccc3Cl)C2=O)c2ccccc21 | 1.47 | 88.9 |
| Cc1nn(C)c(C)c1/C=N/O | 1.3 |  |
| N#C/C(=C\c1ccc(N2CCOCC2)o1)C(=O)NCCc1ccccc1 | 3.58 | 92 |
| CCN(CC)c1ccc2cc(C(C)=O)c(=O)oc2c1 | 1.64 |  |
| CCCSc1nnc(Cn2c(=O)sc3ccccc32)n1C | 1.48 | 99.6 |
| CCCCCCc1cc2cc(-c3nnc(-c4ccccc4O)o3)c(=O)oc2cc1O | 6.55 | 39.7 |
| COC(=O)C1=C(O)/C(=C\c2ccc(CNS(=O)(=O)c3ccc(Cl)cc3)o2)N=C1C | 1.56 | 89.8 |
| Cc1ccc(S(=O)(=O)N[C@H](C(=O)Oc2ccc3c(C(F)(F)F)cc(=O)oc3c2)c2ccccc2)cc1 | 1.25 | 96.3 |
| CCN1CCC2(CC1)C(C#N)=C(N)Oc1c2sc2nc(C)cc(C)c12 | 1.49 | 104 |
| Cc1cc(C(=O)COc2cccnc2[N+](=O)[O-])c(C)n1Cc1ccco1 | 1.36 | 93.9 |
| CCOC(=O)c1c(C)[nH]c(C(=O)/C(C#N)=C/c2ccc(OCC)cc2)c1C | 1.51 | 98.9 |
| Cc1cc(C)c[n+](-c2nc3ccccc3nc2[N-]S(=O)(=O)c2ccc(Br)s2)c1 | 2.06 | 100 |
| CNc1ccccc(-c2ccc3cc4c(cc3n2)OCO4)c1=O | 1.65 | 92.4 |
